Data as given in US20210017279A1 (NANJING LEGEND BIOTECH, published 2021).

T1: LAG-3-Fc (human, UniProt P18627 29-450, biotinylated (in the blocking assays))
T1 construct: Recombinant LAG-3-Fc (Acrobiosystems / R&D Systems); also called biotinylated LAG-3-Fc protein; not shown: Fc part
T1 sequence: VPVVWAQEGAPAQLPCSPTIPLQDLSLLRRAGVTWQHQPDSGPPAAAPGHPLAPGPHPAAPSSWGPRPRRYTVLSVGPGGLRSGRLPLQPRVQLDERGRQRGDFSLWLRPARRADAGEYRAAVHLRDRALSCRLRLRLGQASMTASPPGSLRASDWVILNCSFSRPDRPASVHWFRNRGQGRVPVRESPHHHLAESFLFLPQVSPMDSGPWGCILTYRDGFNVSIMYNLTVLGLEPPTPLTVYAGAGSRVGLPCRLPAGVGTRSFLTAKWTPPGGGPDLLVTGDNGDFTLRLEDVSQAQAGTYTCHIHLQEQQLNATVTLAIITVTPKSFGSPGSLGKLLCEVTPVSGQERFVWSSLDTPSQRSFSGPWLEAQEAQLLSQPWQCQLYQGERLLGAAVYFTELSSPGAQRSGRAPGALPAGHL

T2: human LAG-3 expressed on CHO-K1 cells (human, UniProt P18627 29-525)
T2 construct: also called CHO-huLAG-3 cells; LAG-3 expressed on CHO cells
T2 sequence: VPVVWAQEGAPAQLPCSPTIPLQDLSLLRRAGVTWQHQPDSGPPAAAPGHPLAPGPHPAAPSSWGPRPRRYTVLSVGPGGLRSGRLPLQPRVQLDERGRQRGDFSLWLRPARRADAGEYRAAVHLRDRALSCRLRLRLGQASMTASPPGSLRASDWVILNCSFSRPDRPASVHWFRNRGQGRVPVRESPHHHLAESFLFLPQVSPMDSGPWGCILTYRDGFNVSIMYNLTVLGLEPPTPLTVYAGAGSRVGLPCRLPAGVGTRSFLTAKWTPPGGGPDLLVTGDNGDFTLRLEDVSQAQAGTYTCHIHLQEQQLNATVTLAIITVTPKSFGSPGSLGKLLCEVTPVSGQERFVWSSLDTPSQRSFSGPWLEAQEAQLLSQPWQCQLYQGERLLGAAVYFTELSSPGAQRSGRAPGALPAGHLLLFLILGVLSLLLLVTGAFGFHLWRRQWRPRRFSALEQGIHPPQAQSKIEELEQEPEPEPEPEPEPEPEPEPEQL

T3: Human LAG-3-His (human, UniProt P18627 29-450)
T3 construct: Bought recombinant protein; also called Human LAG-3 protein (Acrobiosystem, 772-6BGF2-D5); not shown: His tag
T3 sequence: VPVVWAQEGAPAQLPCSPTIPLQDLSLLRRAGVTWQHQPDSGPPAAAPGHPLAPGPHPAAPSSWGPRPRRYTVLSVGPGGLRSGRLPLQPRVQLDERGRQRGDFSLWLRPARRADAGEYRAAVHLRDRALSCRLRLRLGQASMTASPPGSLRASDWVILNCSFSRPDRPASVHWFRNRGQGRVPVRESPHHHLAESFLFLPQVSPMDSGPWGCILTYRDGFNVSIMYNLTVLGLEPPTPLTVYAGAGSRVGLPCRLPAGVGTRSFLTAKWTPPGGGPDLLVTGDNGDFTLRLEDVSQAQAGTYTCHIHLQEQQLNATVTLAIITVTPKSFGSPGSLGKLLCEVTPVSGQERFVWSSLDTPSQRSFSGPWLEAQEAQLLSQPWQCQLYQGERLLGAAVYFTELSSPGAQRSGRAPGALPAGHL

B1: AS20594-Fc (Fc fusion)
chain: QVQLAESGGGSVQAGGSLRLSCAASGYTISSYCMGWFRQAPGKEREGVAAIDSDGSTSYADSVKGRFTISKDNAKNTLYLQMNSLKPEDTAMYYCAADFCWVDDFYEYNYWGQGTQVTVSS[letters of human IgG4 Fc with S228P (EU numbers) omitted]
notes: also called AS20594 HCAb; non-humanized anti-LAG-3 sdAb-Fc fusion protein
B2: AS20594VH10-Fc (Fc fusion)
chain: EVQLVESGGGLVQPGGSLRLSCAASGYTISSYCMGWFRQAPGKGLEGVAAIDSDGSTSYADSVKGRFTISKDNSKNTLYLQMNSLRAEDTAVYYCAADFCWVDDFYEYNYWGQGTLVTVSS[letters of human IgG4 Fc with S228P (EU numbers) omitted]
notes: also called AS20594VH10 HCAb; humanized anti-LAG-3 sdAb-Fc fusion protein
B3: AS20846VH12-Fc (Fc fusion)
chain: EVQLVESGGGLVQPGGSLRLSCAASGYTVSSYCMGWFRQAPGKGREGVSAIDSDGSVSYADSVKGRFTISKDNSKNTLYLQMNSLRAEDTAVYFCAADLCWVDQDQGEYNTWGQGTLVTVSS[letters of human IgG4 Fc with S228P (EU numbers) omitted]
notes: also called AS20846VH12 HCAb; humanized anti-LAG-3 sdAb-Fc fusion protein
B4: AS20592-Fc (Fc fusion)
chain: EVQLVESGGGSVQAGGSLRLSCAASGYIISSYCMGWFRQAPGKEREGVAAIDSDGGTSYADSVKGRFTISKDNAKNTLYLQMDSLKPEDTAMYYCAADFCWVDEDRHLYEYNSWGQGTQVTVSS[letters of human IgG4 Fc with S228P (EU numbers) omitted]
notes: also called AS20592 HCAb; non-humanized anti-LAG-3 sdAb-Fc fusion protein
B5: AS20592VH10-Fc (Fc fusion)
chain: EVQLVESGGGLVQPGGSLRLSCAASGYIISSYCMGWFRQAPGKGLEGVAAIDSDGGTSYADSVKGRFTISKDNSKNTLYLQMNSLRAEDTAMYYCAADFCWVDEDRHLYEYNSWGQGTLVTVSS[letters of human IgG4 Fc with S228P (EU numbers) omitted]
notes: also called AS20592VH10 HCAb; humanized anti-LAG-3 sdAb-Fc fusion protein
B6: AS20601-Fc (Fc fusion)
chain: EVQLAESGGGSVQAGGSLRLSCAASGYTYGGYCMGWFRQAPGKEREGVATINSDGSTNYADSVKGRFTISKDNAKNTLYLQMNSLSPEDTAMYYCAVDLAPCWVAGPIEAADFGYWGQGTQVTVSS[letters of human IgG4 Fc with S228P (EU numbers) omitted]
notes: also called AS20601 HCAb; non-humanized anti-LAG-3 sdAb-Fc fusion protein
B7: AS20601VH4-Fc (Fc fusion)
chain: EVQLVESGGGLVQPGGSLRLSCAASGYTYGGYCMGWFRQAPGKGLEGVSTINSDGSTNYADSVKGRFTISRDNSKNTLYLQMNSLRAEDTAVYYCAVDLAPCWVAGPIEAADFGYWGQGTLVTVSS[letters of human IgG4 Fc with S228P (EU numbers) omitted]
notes: also called AS20601VH4 HCAb; humanized anti-LAG-3 sdAb-Fc fusion protein

Columns and labels:
LAG-3-Fc [1] = biological target: T1, LAG-3-Fc; assay: flow cytometry competition; blocks biotinylated LAG-3-Fc binding to MHC II on A375 cells
Method: (§1) To determine cell binding EC₅₀, CHO-K1 cells expressing human or cynomolgus LAG-3 were harvested and incubated with anti-LAG-3 sdAb-Fc fusion proteins at gradient concentrations, followed by fluorophore-labeled secondary antibodies against human Fc. […] The samples were then analyzed with flow cytometry. The binding and blocking curves were shown in FIG. 4 and FIG. 5, respectively.

LAG-3-Fc [2] = biological target: T1, LAG-3-Fc; assay: flow cytometry competition; span of the blocking curve, LAG-3-Fc binding to MHC II on A375 cells
Method: as §1

[3] = biological target: LAG-3 on Thaw-and-Use LAG-3 Effector cells; assay: cell-based or functional assay
[4] = biological target: T2, human LAG-3 expressed on CHO-K1 cells; assay: flow cytometry on CHO cells expressing LAG-3; Experiment 1
[5] = biological target: T2, human LAG-3 expressed on CHO-K1 cells; assay: flow cytometry on CHO-K1 cells expressing human LAG-3
Method: as §1

Cynomolgus LAG-3-Fc [6] = biological target: T4, Cynomolgus LAG-3-Fc (cynomolgus); assay: SPR (Biacore T200); antibody captured on chip, LAG-3 injected
T4 construct: Bought recombinant protein; also called cynomolgus LAG-3 protein (Acrobiosystem, 2187-71HF1-DZ)

Human LAG-3-His [7] = biological target: T3, Human LAG-3-His; assay: as above
[8] = biological target: T5, cynomolgus LAG-3 expressed on CHO-K1 cells (cynomolgus); assay: flow cytometry on CHO-K1 cells expressing cynomolgus LAG-3
T5 construct: whole, on cells
Method: as §1

Human LAG-3-His [9] = biological target: T3, Human LAG-3-His; assay: SPR (Biacore T200), as in Example 3; Experiment 1
LAG-3-Fc [10] = biological target: T1, LAG-3-Fc; assay: flow cytometry competition; blocks LAG-3-Fc binding to MHC II on A375 cells; Experiment 1
Human LAG-3-His [11] = biological target: T3, Human LAG-3-His; assay: SPR (Biacore T200); antibody captured on chip, human LAG-3 injected
Cynomolgus LAG-3-Fc [12] = biological target: T4, Cynomolgus LAG-3-Fc; assay: SPR (Biacore T200); cynomolgus LAG-3 immobilized, antibody injected
[13] = biological target: T2, human LAG-3 expressed on CHO-K1 cells; assay: flow cytometry on CHO cells expressing LAG-3; Experiment 2
Method: as §1

Human LAG-3-His [14] = biological target: T3, Human LAG-3-His; assay: SPR (Biacore T200), as in Example 3; Experiment 2
LAG-3-Fc [15] = biological target: T1, LAG-3-Fc; assay: flow cytometry competition; blocks LAG-3-Fc binding to MHC II on A375 cells; Experiment 2
[16] = biological target: LAG-3 on Thaw-and-Use LAG-3 Effector cells; assay: cell-based or functional assay; remark: listed apart in the source

Binder | EC50 (LAG-3-Fc [1]) | Span (LAG-3-Fc [2]) | LAG-3 blockade reporter assay EC50 [3] | EC50 [4] | EC50 [5] | Kd (Cynomolgus LAG-3-Fc [6]) | koff (Cynomolgus LAG-3-Fc [6]) | kon (Cynomolgus LAG-3-Fc [6]) | Kd (Human LAG-3-His [7]) | koff (Human LAG-3-His [7]) | kon (Human LAG-3-His [7]) | EC50 [8] | EC50 (LAG-3-Fc [10]) | Kd (Human LAG-3-His [11]) | koff (Human LAG-3-His [11]) | kon (Human LAG-3-His [11]) | Kd (Cynomolgus LAG-3-Fc [12]) | koff (Cynomolgus LAG-3-Fc [12]) | kon (Cynomolgus LAG-3-Fc [12]) | EC50 [13] | further results
B1 | 6.58 nM | 328 | 1.67 nM | 0.304 nM | 0.39 nM | 0.052 nM | 0.00028 s⁻¹ | 5.3e+06 M⁻¹ s⁻¹ | 0.11 nM | 0.00024 s⁻¹ | 2.2e+06 M⁻¹ s⁻¹ | 1.02 nM | 1.06 nM | – | – | – | – | – | – | – | Kd (Human LAG-3-His [9]): 0.11 nM
B2 | – | – | – | – | – | – | – | – | – | – | – | – | – | 0.49 nM | 0.00079 s⁻¹ | 1.6e+06 M⁻¹ s⁻¹ | 51 nM | 0.0033 s⁻¹ | 65000 M⁻¹ s⁻¹ | – | –
B3 | – | – | 3.12 nM | – | – | – | – | – | – | – | – | – | – | 0.46 nM | 0.0006 s⁻¹ | 1.3e+06 M⁻¹ s⁻¹ | 49 nM | 0.0015 s⁻¹ | 31000 M⁻¹ s⁻¹ | 12.4 nM | Kd (Human LAG-3-His [14]): 0.46 nM; EC50 (LAG-3-Fc [15]): 48.8 nM; LAG-3 blockade reporter assay EC50 [16]: 3.13 nM; LAG-3 blockade reporter assay Signal span (% activation) [16]: 83.3 % activation
B4 | 5.54 nM | 233 | 2.33 nM | 1.24 nM | 0.686 nM | 0.093 nM | 0.00042 s⁻¹ | 4.5e+06 M⁻¹ s⁻¹ | 0.11 nM | 0.00022 s⁻¹ | 2.1e+06 M⁻¹ s⁻¹ | 1.83 nM | 0.781 nM | – | – | – | – | – | – | – | –
B5 | – | – | – | – | – | – | – | – | – | – | – | – | – | 0.47 nM | 0.00065 s⁻¹ | 1.4e+06 M⁻¹ s⁻¹ | 39 nM | 0.0015 s⁻¹ | 37000 M⁻¹ s⁻¹ | 10.5 nM | Kd (Human LAG-3-His [14]): 0.47 nM; EC50 (LAG-3-Fc [15]): 47.4 nM; LAG-3 blockade reporter assay EC50 [16]: 0.89 nM; LAG-3 blockade reporter assay Signal span (% activation) [16]: 92 % activation
B6 | 7.99 nM | 260 | 1.34 nM | 0.229 nM | 0.494 nM | 0.29 nM | 0.0035 s⁻¹ | 1.2e+07 M⁻¹ s⁻¹ | 0.042 nM | 0.00018 s⁻¹ | 4.4e+06 M⁻¹ s⁻¹ | 1.61 nM | 0.844 nM | – | – | – | – | – | – | – | Kd (Human LAG-3-His [9]): 0.042 nM
B7 | – | – | 3.98 nM | – | – | – | – | – | – | – | – | – | – | 0.1 nM | 0.00033 s⁻¹ | 3.2e+06 M⁻¹ s⁻¹ | 76 nM | 0.007 s⁻¹ | 92000 M⁻¹ s⁻¹ | 14.5 nM | Kd (Human LAG-3-His [14]): 0.1 nM; EC50 (LAG-3-Fc [15]): 49.8 nM; LAG-3 blockade reporter assay EC50 [16]: 3.98 nM; LAG-3 blockade reporter assay Signal span (% activation) [16]: 92.7 % activation

Where two headings read alike, the source gives them in different places.
